Common to all, as to assay: two-hybrid; LexA bait and B42 activating domain prey, galactose-induced; liquid culture, quantitative beta-galactosidase activity of permeabilized cells with reporter pSH18034, wild-type cells (JC470)
Test [1] concerns the target T1, Nse5-L70A-LexA (S. cerevisiae) (UniProt Q03718).
T1 sequence: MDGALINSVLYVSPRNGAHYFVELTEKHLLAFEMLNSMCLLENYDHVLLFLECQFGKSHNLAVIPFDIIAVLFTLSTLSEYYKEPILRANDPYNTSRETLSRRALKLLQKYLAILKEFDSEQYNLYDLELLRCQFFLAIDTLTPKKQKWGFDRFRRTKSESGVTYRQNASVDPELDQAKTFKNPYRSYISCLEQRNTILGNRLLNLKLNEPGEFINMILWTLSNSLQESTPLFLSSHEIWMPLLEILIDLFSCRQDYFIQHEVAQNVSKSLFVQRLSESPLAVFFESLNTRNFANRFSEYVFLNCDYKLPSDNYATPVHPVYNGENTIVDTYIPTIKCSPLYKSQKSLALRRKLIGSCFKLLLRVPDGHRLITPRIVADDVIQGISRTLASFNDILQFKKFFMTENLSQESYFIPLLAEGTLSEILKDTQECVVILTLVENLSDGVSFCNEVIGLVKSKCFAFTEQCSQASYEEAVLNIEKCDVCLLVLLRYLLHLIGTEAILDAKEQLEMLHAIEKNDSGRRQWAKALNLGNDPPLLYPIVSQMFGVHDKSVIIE

Test [2] has as its target T2, Nse5-ts2-LexA (S. cerevisiae) (UniProt Q03718).
T2 sequence: T1 sequence with L247A

The target of test [3] is T3, Nse5-L247A-LexA (S. cerevisiae) (UniProt Q03718).
T3 sequence: T1 sequence with A70L, L247A

The target in the next test is T4, Nse5-LexA (wild type) (S. cerevisiae, UniProt Q03718 1-556).
T4 construct: Nse5 of Saccharomyces cerevisiae, NSE5 gene cloned into a pEG202-derived bait plasmid; also called Non-Smc element 5; J-038; source: yeast two-hybrid fusion, galactose-inducible promoter, in S. cerevisiae
T4 sequence (looked up): T1 sequence with A70L

Positions count from the first letter of the chain named. Names and notes keep the numbering of the source. No constants are given. Whether binding was seen depends on the method and setting. Some results given as binding are weak or reduced against the parent protein; the word gives no strength. For some of these results: Tags and fused reporters may be left off the sequences shown.

B1: Smt3-AD (natural protein, S. cerevisiae, UniProt Q12306 1-101, looked up)
chain: MSDSEVNQEAKPEVKPEVKPETHINLKVSDGSSEIFFKIKKTTPLRRLMEAFAKRQGKEMDSLRFLYDGIRIQADQTPEDLDMEDNDIIEAHREQIGGATY
notes: Smt3 (SUMO) of Saccharomyces cerevisiae, SMT3 cloned into a pJG4-6-derived prey vector; also called SUMO; J-043; source: yeast two-hybrid fusion, galactose-inducible promoter, in S. cerevisiae
In the case of B1, the binding result is “no binding” in test [1], “no binding” in test [2], “no binding” in test [3] and “binds” in the test with Nse5-LexA (wild type).

B2: Ubc9-C93A/K153R (enzyme, UniProt P50623 1-157)
chain: MSSLCLQRLQEERKKWRKDHPFGFYAKPVKKADGSMDLQKWEAGIPGKEGTNWAGGVYPITVEYPNEYPSKPPKVKFPAGFYHPNVYPSGTIALSILNEDQDWRPAITLKQIVLGVQDLLDSPNPNSPAQEPAWRSFSRNKAEYDKKVLLQARQYSK
B2: the binding result with Nse5-LexA (wild type) was “binds”.

B3: Ubc9-C93A (enzyme, UniProt P50623 1-157)
chain: B2 chain with R153K
As to B3, in the test with Nse5-LexA (wild type), the binding entry is on record as “binds”.

B4: Ubc9-K153R (enzyme, UniProt P50623 1-157)
chain: B2 chain with A93C
With B4, the binding entry in the test with Nse5-LexA (wild type) is recorded as “binds”.

B5: Siz1-AD (protein, UniProt Q04195 1-904)
chain: MINLEDYWEDETPGPDREPTNELRNEVEETITLMELLKVSELKDICRSVSFPVSGRKAVLQDLIRNFLQNALVVGKSDPYRVQAVKFLIERIRKNEPLPVYKDLWNALRKGTPLSAITVRSMEGPPTVQQQSPSVIRQSPTQRRKTSTTSSTSRAPPPTNPDASSSSSSFAVPTIHFKESPFYKIQRLIPELVMNVEVTGGRGMCSAKFKLSKADYNLLSNPNSKHRLYLFSGMINPLGSRGNEPIQFPFPNELRCNNVQIKDNIRGFKSKPGTAKPADLTPHLKPYTQQNNVELIYAFTTKEYKLFGYIVEMITPEQLLEKVLQHPKIIKQATLLYLKKTLREDEEMGLTTTSTIMSLQCPISYTRMKYPSKSINCKHLQCFDALWFLHSQLQIPTWQCPVCQIDIALENLAISEFVDDILQNCQKNVEQVELTSDGKWTAILEDDDDSDSDSNDGSRSPEKGTSVSDHHCSSSHPSEPIIINLDSDDDEPNGNNPHVTNNHDDSNRHSNDNNNNSIKNNDSHNKNNNNNNNNNNNNNDNNNSIENNDSNSNNKHDHGSRSNTPSHNHTKNLMNDNDDDDDDRLMAEITSNHLKSTNTDILTEKGSSAPSRTLDPKSYNIVASETTTPVTNRVIPEYLGNSSSYIGKQLPNILGKTPLNVTAVDNSSHLISPDVSVSSPTPRNTASNASSSALSTPPLIRMSSLDPRGSTVPDKTIRPPINSNSYTASISDSFVQPQESSVFPPREQNMDMSFPSTVNSRFNDPRLNTTRFPDSTLRGATILSNNGLDQRNNSLPTTEAITRNDVGRQNSTPVLPTLPQNVPIRTNSNKSGLPLINNENSVPNPPNTATIPLQKSRLIVNPFIPRRPYSNVLPQKRQLSNTSSTSPIMGTWKTQDYGKKYNSG
As for B5, the binding result with Nse5-LexA (wild type) was “binds”.

B6: Siz2-AD (protein, UniProt Q12216 1-726)
chain: MASVMSNNNNNNNNNNASYMFTNPLSNTGGGLINEIKDAINEMEQLKVLELKQICKSLDLSITGKKAVLQDRIKQFLRKSCDIGHIDPWRPKAIKILIAKVRINSSLPKYSTLWETLKTGAFKHPVASGQLPVTALQSTALPPYSQQQALAYSFTSPFYKPIVQIPDANKKLKQSAGRGCTKMKFKVSKSNHDLLKSNKSYKLYLFSGFSIPFIYETVGHEAIDFPYPCELVFNGTKLEDNVKGLKKQNGTGNPANLTPYLKVPTEMNHLDLHYLNIDKEYSISCFIVEVFSPEALLGKILKRPKIIKQATTAYIKRTLNEQDDDDIITTSTVLSLQCPISCTRMKYPAKTDQCKHIQCFDALWFLHSQSQVPTWQCPICQHPIKFDQLKISEFVDNIIQNCNEDVEQVEISVDGSWKPIHNSSAVITDTVNQNHSVKNENQGTVKQEQDYDSRNAFDTNLRNGSNHNEPEIISLDSSDDEAFIPASKSFPTHVNPRNDQLRADIFPSESEGSSDYNPNHTSTPKGSPTMDQDNYQDAFQMRSFLNQGATTNINDTPTNNSSINSFVTATNGDSRIFYNRGPSTPLLPAVLQNLTNQTEAQRNPYGPNYNTTAQDRNLLGIEGDLPPIPPVDPNSEAETELPTRTTSAAHLPPYIHVSTSGHGDDGKIRKRRHSNVSIYIPKNPYATLMKRRPQANHAIMNKTLAQTNDFNTSAQDNSEVVDLTSD
Take B6: in the test with Nse5-LexA (wild type), the binding result is recorded as “binds”.

B7: Cst9-AD (protein, UniProt Q06032 1-482)
chain: MGGYLAIVFIPQTNTKSMREKKQKCLKQVRRLSLISPKKYIMPDSIFEQPFVYCGVCHRRTSHGDPLRLTSCAHILCSQHSPLTSKVCPICRSSDISIINLVESKQLPTDIRIFFEPLPPLLESLYNVSQFQLNGLSKQCQYYQNHCLKLREKCARQQQLLYQAKIELDSMAILKKRIQELESVLNHNNVSSMSVGVLPTRNSHQNHYQPPPTVDLTVDDNSLEEFEAKSFIKKLKKNSSLRNSSKNNNGTVTPSTSGRVNKNQPLFMETLNNPNRNSIPPPGMNPNANSNLPNISTIAESTNLNRFSFSPVRVAKGFDGKLPNLDILTNNGSVSSKNISRLSSASLQPSSPLSSSSNRLILPNSNLKELHHSNTPLTSTSTQFPSALEKLKITRKRNNTISGSNRITHNLSSHVRSSGLAFSSSSNSLQQSKLPKSNILKRSNSTQQLTNTHLKSDNHLPPRSSNTVLGSSKKNNKFRRIR
For the molecule B7, in the test with Nse5-LexA (wild type), the binding entry was “no binding”.

Source of the values: paper PMC4920195, “Non-Smc element 5 (Nse5) of the Smc5/6 complex interacts with SUMO pathway components” (Biology Open, 2016).
